The other results are listed elsewhere or left out. At the low end of the ranking the order means little.

In the assay the target is T1, ELK1 (UniProt P19419).
T1 sequence: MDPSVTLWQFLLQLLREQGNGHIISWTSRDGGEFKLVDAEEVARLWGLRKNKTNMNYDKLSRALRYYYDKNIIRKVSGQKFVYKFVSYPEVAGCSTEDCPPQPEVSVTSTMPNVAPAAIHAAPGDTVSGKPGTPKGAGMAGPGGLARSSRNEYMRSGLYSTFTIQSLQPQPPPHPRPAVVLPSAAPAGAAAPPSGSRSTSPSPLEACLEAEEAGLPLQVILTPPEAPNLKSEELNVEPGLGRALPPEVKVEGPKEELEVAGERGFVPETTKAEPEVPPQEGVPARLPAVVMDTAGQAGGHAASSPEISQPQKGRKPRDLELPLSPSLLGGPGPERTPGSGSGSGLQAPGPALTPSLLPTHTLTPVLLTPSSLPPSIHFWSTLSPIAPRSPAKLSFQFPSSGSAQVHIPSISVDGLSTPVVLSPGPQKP
In words: custom PBM. To be noted: custom protein-binding microarray; buffer, salt, pH and temperature not stated; high values mean tight binding; double strand, one strand shown.
Regarding “GCTGCTGCGGTGCATACCCCACCGGATGCGACCCCGGTCTTGATTCGCTTGACGCTGCTG”, the binding signal (log fluorescence intensity) was determined as 9.88.
To “CACAATTTTTACAGTAATGTATCACGCGTAACTCCTGTCTTGATTCGCTTGACGCTGCTG” belongs 8.71; to “TACTGACTTATAGATGCGAATGCACATGAATAGACCGTCTTGATTCGCTTGACGCTGCTG”, 8.81; to “CAGGGACTTGACCCAACTCTGCCACGTGGGTCGTTTGTCTTGATTCGCTTGACGCTGCTG”, 8.86.
The result for “GTGTATAGGATCCCATCCAACACACGTGTTAAGATGGTCTTGATTCGCTTGACGCTGCTG” reads 8.88; that for “CGGCATAGGACTTCTTCCCTGAAGCAATTGATAACCGTCTTGATTCGCTTGACGCTGCTG”, 8.89; that for “TGTCGGGTAAGGGAATGTAGATCACGTCAATGAAAAGTCTTGATTCGCTTGACGCTGCTG”, 8.87.
To “CAGCATAGGACTTCTTCCCTGAAGCAATTGGTAACCGTCTTGATTCGCTTGACGCTGCTG” belongs 8.8; to “TCCGGCTACCAGCTCCACCCACTTCAGGCCTTGTTGGTCTTGATTCGCTTGACGCTGCTG”, 8.77; to “GTGAATAGGATCCCATCCAACACACGTGTTAAAATGGTCTTGATTCGCTTGACGCTGCTG”, 8.94.
For “TAAAGGGAAAACGGTTGTGGTAGTTCCGGGTATTAAGTCTTGATTCGCTTGACGCTGCTG”, the binding signal (log fluorescence intensity) amounted to 11.2.
As to “CGTCGGGTAAGGGAATGTAGATCACGTGAATGAAAAGTCTTGATTCGCTTGACGCTGCTG”, the binding signal (log fluorescence intensity) was 9.
To “GTGTATAGGATCACATCCAACACACGTGTTAAAATGGTCTTGATTCGCTTGACGCTGCTG” belongs 8.82; to “GAGTAATTTCTGCCCTTATTCGCACGTGCCATAACAGTCTTGATTCGCTTGACGCTGCTG”, 8.78.
To “GATTAAGTTCTGCCCTTATTCGCACGTGCCATAACAGTCTTGATTCGCTTGACGCTGCTG” belongs 8.84; to “CGGAAGTGTCGTAAACGTCGGATACCCGGTTCTTCTGTCTTGATTCGCTTGACGCTGCTG”, 9.29.
With “TAAAGGGAAGACGGTTATGGTAGTTCCGGGTATTAAGTCTTGATTCGCTTGACGCTGCTG”, the binding signal (log fluorescence intensity) stood at 11.2.
The result for “CGGATGTGTCGTAAACGTCGGATATCCGGTTCTTCTGTCTTGATTCGCTTGACGCTGCTG” reads 12.2; that for “CAGCATAGGACTTCTTCCCTGAAGCAATTGATAAGCGTCTTGATTCGCTTGACGCTGCTG”, 8.86; that for “ATGGGACTTGACCCAACTCTGCCACGTGGGTCGTTTGTCTTGATTCGCTTGACGCTGCTG”, 8.96.
For “TGTCGGGTAAGGGAATGTAGATCACGTGAATTAAAAGTCTTGATTCGCTTGACGCTGCTG”, the binding signal (log fluorescence intensity) is 8.81.
To “TAAAGGGAAGACGGTTGTGGTAGTTCCGGCTATTAAGTCTTGATTCGCTTGACGCTGCTG” belongs 11.3; to “CGGAAGTGTCGTGAACGTCGGATATCCGGTTCTTCTGTCTTGATTCGCTTGACGCTGCTG”, 11.8; to “TGTCGGGTAAGGGAACGTAGATCACGTGAATGAAAAGTCTTGATTCGCTTGACGCTGCTG”, 8.84.
To “CAGCGTAGGACTTCTTCCCTGAAGCAATTGATAACCGTCTTGATTCGCTTGACGCTGCTG” belongs 8.89.
The result for “GGAAAAAGGCCCAGGGTAACACCGAAAGTGGGCTTAGTCTTGATTCGCTTGACGCTGCTG” reads 8.94; that for “CGGAAGTGTCGTAAACGTCGAATATCCGGTTCTTCTGTCTTGATTCGCTTGACGCTGCTG”, 11.7; that for “CTGGGACTTGACCCAACTCTGGCACGTGGGTCGTTTGTCTTGATTCGCTTGACGCTGCTG”, 8.84.
In the case of “TACTGACTTATATATGCGAATGCACAAGAATAGACCGTCTTGATTCGCTTGACGCTGCTG”, the binding signal (log fluorescence intensity) was found to be 8.84.
The result for “TAAAGGCAAGACGGTTGTGGTAGTTCCGGGTATTAAGTCTTGATTCGCTTGACGCTGCTG” reads 11; that for “GTGTATAGGATCCCATCCACCACACGTGTTAAAATGGTCTTGATTCGCTTGACGCTGCTG”, 8.9.
For “CTGGGACTTGACTCAACTCTGCCACGTGGGTCGTTTGTCTTGATTCGCTTGACGCTGCTG”, the binding signal (log fluorescence intensity) was determined as 8.85.
Regarding “CGGAAGTGCCGTAAACGTCGGATATCCGGTTCTTCTGTCTTGATTCGCTTGACGCTGCTG”, the binding signal (log fluorescence intensity) turned out to be 12.5.
The result for “CAGCATAGGACTTCTTCCCTGAAGAAATTGATAACCGTCTTGATTCGCTTGACGCTGCTG” reads 8.96; that for “CTGGGACTTGAACCAACTCTGCCACGTGGGTCGTTTGTCTTGATTCGCTTGACGCTGCTG”, 8.83; that for “GCTGCTGCGGTGCATACCCCACCGGATGAGACCCCGGTCTTGATTCGCTTGACGCTGCTG”, 9.34.
To “TAAAGGGAAGACGGATGTGGTAGTTCCGGGTATTAAGTCTTGATTCGCTTGACGCTGCTG” belongs 12.6.
Regarding “CAGCATAGGACTTCTTCCCTGAAGCCATTGATAACCGTCTTGATTCGCTTGACGCTGCTG”, the binding signal (log fluorescence intensity) stood at 8.99.
The result for “TACTGACTTATATATGCGAATGCAGATGAATAGACCGTCTTGATTCGCTTGACGCTGCTG” reads 8.95.
For the sequence “CAGCATAGGACTTCTTCCCTGAAGCAATTGATAGCCGTCTTGATTCGCTTGACGCTGCTG”, the binding signal (log fluorescence intensity) was found to be 9.06.
The result for “CTGGGACTTGACCCGACTCTGCCACGTGGGTCGTTTGTCTTGATTCGCTTGACGCTGCTG” reads 8.82.
To “CAGCATAGGACTTCTTCCCTGAAGCAATTGATATCCGTCTTGATTCGCTTGACGCTGCTG” belongs 9.07; to “GTGTATAAGATCCCATCCAACACACGTGTTAAAATGGTCTTGATTCGCTTGACGCTGCTG”, 8.8.
To “GGAAAAAGGCCCAGGGTACCACCGGAAGTGGGCTTAGTCTTGATTCGCTTGACGCTGCTG” belongs 11.1.
As to “TAAAGGGAAGACGGTTGTGGTTGTTCCGGGTATTAAGTCTTGATTCGCTTGACGCTGCTG”, the binding signal (log fluorescence intensity) stood at 10.5.
To “TACTGACTTATGTATGCGAATGCACATGAATAGACCGTCTTGATTCGCTTGACGCTGCTG” belongs 8.84; to “CAGCCTAGGACTTCTTCCCTGAAGCAATTGATAACCGTCTTGATTCGCTTGACGCTGCTG”, 8.8.
The result for “CAGCATAGGACTTCTTCCCTGAAGGAATTGATAACCGTCTTGATTCGCTTGACGCTGCTG” reads 8.89; that for “CAGCATAGGACCTCTTCCCTGAAGCAATTGATAACCGTCTTGATTCGCTTGACGCTGCTG”, 8.85.
The result for “GCTGCTGCGGTGCATACCCCACCGGATGTGACCCCTGTCTTGATTCGCTTGACGCTGCTG” reads 10.1; that for “TCCGGCCACCAGCTCCACCCACTTCAGGCCTTGTAGGTCTTGATTCGCTTGACGCTGCTG”, 8.76; that for “TCCGGCAACCAGCTCCACCCACTTCAGGCCTTGTAGGTCTTGATTCGCTTGACGCTGCTG”, 8.79.
With “GATTAATTTCTGCCCTCATTCGCACGTGCCATAACAGTCTTGATTCGCTTGACGCTGCTG”, the binding signal (log fluorescence intensity) is 8.87.
For “TAAAGGGAAGACGGTTGTCGTAGTTCCGGGTATTAAGTCTTGATTCGCTTGACGCTGCTG”, the binding signal (log fluorescence intensity) was found to be 10.9.
For the sequence “GTGTATAGGATCCCATCCAATACACGTGTTAAAATGGTCTTGATTCGCTTGACGCTGCTG”, the binding signal (log fluorescence intensity) amounted to 8.93.
With “TAAAGGGAAGACGGTTGAGGTAGTTCCGGGTATTAAGTCTTGATTCGCTTGACGCTGCTG”, the binding signal (log fluorescence intensity) amounted to 11.3.
The result for “CAGCATAGGACTCCTTCCCTGAAGCAATTGATAACCGTCTTGATTCGCTTGACGCTGCTG” reads 8.92; that for “ATGTATAGGATCCCATCCAACACACGTGTTAAAATGGTCTTGATTCGCTTGACGCTGCTG”, 8.79; that for “GATTTATTTCTGCCCTTATTCGCACGTGCCATAACAGTCTTGATTCGCTTGACGCTGCTG”, 8.91.
To “TGGCGGGTAAGGGAATGTAGATCACGTGAATGAAAAGTCTTGATTCGCTTGACGCTGCTG” belongs 8.95; to “TACTGACTTATATATGCGAAGGCACATGAATAGACCGTCTTGATTCGCTTGACGCTGCTG”, 8.84; to “CTGGGACTTAACCCAACTCTGCCACGTGGGTCGTTTGTCTTGATTCGCTTGACGCTGCTG”, 8.76.
“TCCGGCTACCAGCTCCACCTACTTCAGGCCTTGTAGGTCTTGATTCGCTTGACGCTGCTG”: the binding signal (log fluorescence intensity) is 8.78.
To “TCCGGCTACCAGCTACACCCACTTCAGGCCTTGTAGGTCTTGATTCGCTTGACGCTGCTG” belongs 8.83; to “CAGCATAGGACTTCTTCCCTGAAGCAATTGTTAACCGTCTTGATTCGCTTGACGCTGCTG”, 9.02; to “CTGGGACTTGACCCAACTCTGTCACGTGGGTCGTTTGTCTTGATTCGCTTGACGCTGCTG”, 8.75.
To “TAAAGGGAAGACGGTTGTGGTAGTTCCGGGTATTTAGTCTTGATTCGCTTGACGCTGCTG” belongs 11.3; to “TGTCGGGTAAGGGAATGTAGATCACGTGAATGACAAGTCTTGATTCGCTTGACGCTGCTG”, 8.94; to “CAGCATAGGACTTCTTCCCTAAAGCAATTGATAACCGTCTTGATTCGCTTGACGCTGCTG”, 8.81.
On to “GCTGCTGCGGTGCATACCCCACCGGAAGTGACCCCGGTCTTGATTCGCTTGACGCTGCTG”, for which the binding signal (log fluorescence intensity) is 11.
The result for “GATTAATTTCTGCCCTTATTCGCACATGCCATAACAGTCTTGATTCGCTTGACGCTGCTG” reads 8.87; that for “TAAAGGGAAGACGGTTGTGGTAGTTCCGGGTATTATGTCTTGATTCGCTTGACGCTGCTG”, 11.
With “CTGGGACTTGACCCAACTCTGCCACGTGGGTTGTTTGTCTTGATTCGCTTGACGCTGCTG”, the binding signal (log fluorescence intensity) turned out to be 8.79.
The result for “TGTCGGGTAAGGGAATGTAGATCACGTGAGTGAAAAGTCTTGATTCGCTTGACGCTGCTG” reads 8.85.
Turning to “TCCGGCTCCCAGCTCCACCCACTTCAGGCCTTGTAGGTCTTGATTCGCTTGACGCTGCTG”, the binding signal (log fluorescence intensity) came to 8.92.
Consider “GGAAAAAGGCCCAGGATAACACCGGAAGTGGGCTTAGTCTTGATTCGCTTGACGCTGCTG”, for which the binding signal (log fluorescence intensity) was 11.1.
To “CAGCATAGGACTTCTTCCCTGAAGCAATTGCTAACCGTCTTGATTCGCTTGACGCTGCTG” belongs 8.83; to “GGAAAAAGGCCCAGGGTAACACCGGAAGTGGACTTAGTCTTGATTCGCTTGACGCTGCTG”, 10.9; to “CAGCATAGGACTTCTTCCCTGAAGCAATTCATAACCGTCTTGATTCGCTTGACGCTGCTG”, 8.93.
The result for “TACTGACTTATATATGCGAATGAACATGAATAGACCGTCTTGATTCGCTTGACGCTGCTG” reads 8.92.
Consider “TACTGACTTATATATGCGACTGCACATGAATAGACCGTCTTGATTCGCTTGACGCTGCTG”, for which the binding signal (log fluorescence intensity) came out at 8.85.

Source of the values: paper PMC6602471.
